# Measured values published in the supplement of paper PMC7826260.
# Some of the results follow. Viral Rep nickase domains cut single-stranded DNA in vitro (3 µM enzyme, 1 h, 37 °C); shown is the middle of each 90-letter strand. Values are log2 of uncut reads against the no-enzyme pool; strong cutting gives strongly negative numbers. There is no active / inactive call. Counts are relative to all reads, so uncut sequences can rise above 0 when many others are cut.
# System: T1, Rep nickase domain of Muscovy duck circovirus
# T1 sequence (residues 1-111, tag not shown): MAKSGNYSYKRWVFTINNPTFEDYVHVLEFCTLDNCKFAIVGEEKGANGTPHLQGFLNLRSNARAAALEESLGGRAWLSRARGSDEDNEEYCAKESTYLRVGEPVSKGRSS
# Test: uncleaved DNA left, log2 of reads against the no-enzyme library (log2 ratio); higher = less cleavage (more negative = more Rep cleavage of the k-mer); sequences stand for … in CTCGTCCG…ACCGGAGA
# Procedure: (§1)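 A pool of 90-nt single-stranded DNAs with seven random bases just before the constant AC of the nick site (name = the seven bases) was cut by 3 µM recombinant His6-SUMO-tagged Rep nickase domain (300 nM DNA, 50 mM HEPES pH 8.0, 50 mM NaCl, 1 mM MnCl2, 1 h, 37 °C, three replicates). Uncut DNA was amplified and sequenced.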
row,Sequence,uncleaved DNA left (log2)
1,GGATCTG,-0.0272
2,TAATATC,-0.112
3,GCGTGGC,0.0779
4,CACAAAT,0.0479
5,GTCGATT,0.0435
6,AAACAGG,0.0941
7,CAGGTCA,0.0252
8,ACCATCA,0.121
9,CCCGATT,0.211
10,CCTCCGA,-0.0017
11,AAGTAAC,0.15
12,GAATTGG,-0.128
13,CTATACT,-3.78
14,CGTACTT,0.254
15,GCGCAGC,0.0304
16,TCACGTC,0.0392
17,GATAAGT,-0.0121
18,AACAAAG,0.0363
19,AGTGTCC,0.0569
20,GGTTTGA,-0.0113

row,Sequence,uncleaved DNA left (log2)
1,TTGCAGT,-0.137
2,AGTACTC,0.0145
3,ATTCAGC,-0.011
4,GCGTTAC,0.0498
5,GTCTACG,0.0107
6,ACTAACC,0.0232
7,TAAAGAT,-0.0177
8,TTAACGA,0.151
9,TGGTCAG,0.0841
10,GTTCTGA,-0.0102
11,TCTCCAA,-0.129
12,ACCGCAT,0.0358
13,TCCGCGT,0.0333
14,CCCAGAC,0.0197
15,AGGAATA,0.131
16,TCCCGCA,-0.239
17,CGGAAAG,0.105
18,ATCTGCC,0.0665
19,ACCGTAA,-0.0952
20,ACACAAC,-0.0029

# System: T2, Rep nickase domain of banana bunchy top virus
# T2 sequence (residues 1-94, tag not shown): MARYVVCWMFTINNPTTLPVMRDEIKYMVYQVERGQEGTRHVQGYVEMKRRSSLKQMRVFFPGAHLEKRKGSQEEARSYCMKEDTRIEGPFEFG
# Test: as above
# Procedure: as §1
row,Sequence,uncleaved DNA left (log2)
1,GGATCTG,0.0574
2,TAATATC,-0.155
3,GCGTGGC,0.0312
4,CACAAAT,0.109
5,GTCGATT,-0.022
6,AAACAGG,0.113
7,CAGGTCA,0.172
8,ACCATCA,0.103
9,CCCGATT,-0.142
10,CCTCCGA,-0.0308
11,AAGTAAC,0.0493
12,GAATTGG,-0.138
13,CTATACT,-0.838
14,CGTACTT,0.0895
15,GCGCAGC,0.158
16,TCACGTC,-0.114
17,GATAAGT,0.111
18,AACAAAG,-0.0167
19,AGTGTCC,0.149
20,GGTTTGA,0.0145

row,Sequence,uncleaved DNA left (log2)
1,TTGCAGT,-0.0872
2,AGTACTC,0.0476
3,ATTCAGC,0.019
4,GCGTTAC,0.0599
5,GTCTACG,0.0958
6,ACTAACC,0.0979
7,TAAAGAT,0.00232
8,TTAACGA,0.0981
9,TGGTCAG,0.145
10,GTTCTGA,0.0358
11,TCTCCAA,-0.0988
12,ACCGCAT,-0.112
13,TCCGCGT,-0.053
14,CCCAGAC,-0.0472
15,AGGAATA,0.184
16,TCCCGCA,-0.207
17,CGGAAAG,0.212
18,ATCTGCC,0.0944
19,ACCGTAA,-0.0419
20,ACACAAC,0.042

# System: T3, Rep nickase domain of cabbage leaf curl virus
# T3 sequence (residues 1-116, tag not shown): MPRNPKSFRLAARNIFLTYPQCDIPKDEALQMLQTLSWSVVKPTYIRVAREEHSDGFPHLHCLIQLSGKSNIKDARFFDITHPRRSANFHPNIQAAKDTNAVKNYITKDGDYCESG
# Test: as above
# Procedure: as §1
row,Sequence,uncleaved DNA left (log2)
1,GGATCTG,0.237
2,TAATATC,-4
3,GCGTGGC,0.00507
4,CACAAAT,-0.142
5,GTCGATT,0.337
6,AAACAGG,-0.00216
7,CAGGTCA,0.173
8,ACCATCA,-0.321
9,CCCGATT,-0.0717
10,CCTCCGA,-0.113
11,AAGTAAC,-0.307
12,GAATTGG,-0.394
13,CTATACT,-3.19
14,CGTACTT,0.175
15,GCGCAGC,0.161
16,TCACGTC,-0.0451
17,GATAAGT,0.127
18,AACAAAG,-0.614
19,AGTGTCC,0.263
20,GGTTTGA,0.292

row,Sequence,uncleaved DNA left (log2)
1,TTGCAGT,-0.884
2,AGTACTC,0.0508
3,ATTCAGC,-0.397
4,GCGTTAC,0.141
5,GTCTACG,0.09
6,ACTAACC,-0.286
7,TAAAGAT,-3.18
8,TTAACGA,-0.35
9,TGGTCAG,0.174
10,GTTCTGA,0.166
11,TCTCCAA,0.0293
12,ACCGCAT,-0.0991
13,TCCGCGT,-0.686
14,CCCAGAC,0.237
15,AGGAATA,0.115
16,TCCCGCA,-0.4
17,CGGAAAG,-0.274
18,ATCTGCC,-0.0459
19,ACCGTAA,-0.391
20,ACACAAC,-0.153

# System: T4, Rep nickase domain of chickpea chlorotic dwarf virus
# T4 sequence (residues 1-124, tag not shown): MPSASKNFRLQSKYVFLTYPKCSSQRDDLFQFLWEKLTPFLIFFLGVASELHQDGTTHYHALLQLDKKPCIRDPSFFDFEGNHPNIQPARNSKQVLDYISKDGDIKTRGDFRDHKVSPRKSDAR
# Test: as above
# Procedure: as §1
row,Sequence,uncleaved DNA left (log2)
1,GGATCTG,1.03
2,TAATATC,-3.46
3,GCGTGGC,0.308
4,CACAAAT,-2.04
5,GTCGATT,0.4
6,AAACAGG,0.631
7,CAGGTCA,-0.236
8,ACCATCA,-1.02
9,CCCGATT,-1.99
10,CCTCCGA,-0.151
11,AAGTAAC,-1.23
12,GAATTGG,-0.482
13,CTATACT,-3.16
14,CGTACTT,0.02
15,GCGCAGC,0.587
16,TCACGTC,-0.474
17,GATAAGT,-0.0332
18,AACAAAG,-0.316
19,AGTGTCC,0.339
20,GGTTTGA,0.866

row,Sequence,uncleaved DNA left (log2)
1,TTGCAGT,-0.523
2,AGTACTC,0.225
3,ATTCAGC,-0.664
4,GCGTTAC,-0.298
5,GTCTACG,0.353
6,ACTAACC,-0.503
7,TAAAGAT,-2.77
8,TTAACGA,-0.679
9,TGGTCAG,0.587
10,GTTCTGA,0.867
11,TCTCCAA,0.0389
12,ACCGCAT,-0.0768
13,TCCGCGT,-0.379
14,CCCAGAC,0.243
15,AGGAATA,0.458
16,TCCCGCA,-1.05
17,CGGAAAG,0.0988
18,ATCTGCC,0.172
19,ACCGTAA,-0.273
20,ACACAAC,-1.78

# System: T5, Rep nickase domain of faba bean necrotic yellows virus
# T5 sequence (residues 1-98, tag not shown): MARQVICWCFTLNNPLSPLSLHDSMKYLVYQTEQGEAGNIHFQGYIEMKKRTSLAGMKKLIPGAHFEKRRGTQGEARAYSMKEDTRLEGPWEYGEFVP
# Test: as above
# Procedure: as §1
row,Sequence,uncleaved DNA left (log2)
1,GGATCTG,-0.0917
2,TAATATC,-0.066
3,GCGTGGC,-0.0108
4,CACAAAT,-0.0178
5,GTCGATT,-0.0741
6,AAACAGG,0.0579
7,CAGGTCA,0.14
8,ACCATCA,0.153
9,CCCGATT,0.188
10,CCTCCGA,0.0638
11,AAGTAAC,0.0473
12,GAATTGG,0.0466
13,CTATACT,-0.106
14,CGTACTT,0.127
15,GCGCAGC,-0.0844
16,TCACGTC,-0.132
17,GATAAGT,0.129
18,AACAAAG,0.0408
19,AGTGTCC,0.155
20,GGTTTGA,-0.0721

row,Sequence,uncleaved DNA left (log2)
1,TTGCAGT,0.0307
2,AGTACTC,-0.0918
3,ATTCAGC,0.095
4,GCGTTAC,0.0975
5,GTCTACG,0.0287
6,ACTAACC,0.039
7,TAAAGAT,-0.112
8,TTAACGA,0.141
9,TGGTCAG,0.0574
10,GTTCTGA,-0.0444
11,TCTCCAA,-0.0587
12,ACCGCAT,0.186
13,TCCGCGT,0.0655
14,CCCAGAC,0.0766
15,AGGAATA,0.0709
16,TCCCGCA,-0.148
17,CGGAAAG,0.105
18,ATCTGCC,-0.0393
19,ACCGTAA,0.061
20,ACACAAC,0.054
